Test results: the supplement of paper PMC3334620
The full ranking holds about 33,000 sequences; the median of “E-score (-0.5 to 0.5)” is about -0.016, and the highest 2% start at about 0.31. Some of the results follow.

The sequences below were run against Cst6 (UniProt P40535) (assay: PBM E-score (8-mer binding enrichment) (E-score (-0.5 to 0.5)); higher = stronger / more preferred TF binding; most listed sequences are background and not binding sites). Conditions: protein concentration: 200 nM; construct: GST-DNA-binding domain.
Method: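 Universal 'all 10-mer' protein binding microarrays (Agilent AMADID 015681) probed with GST-tagged S. cerevisiae TFs (full-length or DBD) made by in vitro transcription/translation (PURExpress), about 100-200 nM. Bound TF was detected with fluorescent anti-GST. Each ungapped 8-mer (which stands for itself and its reverse complement) is scored by the PBM enrichment score (E-score), a modified Wilcoxon-Mann-Whitney statistic from -0.5 to +0.5, computed with the Universal PBM Analysis Suite. Scale: above 0.35 generally sequence-specific binding.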

Row | Sequence | PBM E-score
1 | AGATTCCT | -0.144
2 | GCCTATAC | -0.16
3 | CTGATGAA | 0.0772
4 | AACCTGTC | -0.115
5 | ATTCGACC | -0.183
6 | CGCGTTCC | -0.172
7 | TGTAATAA | 0.329
8 | GAGTGAGA | -0.0221
9 | ATAGCCAT | -0.0348
10 | AGTTGGGA | -0.0811
11 | CTACCAGA | -0.0905
12 | ACGACACA | 0.167
13 | ATAGCTCG | 0.0364
14 | CGCAGCCA | -0.163
15 | TCACAAGA | 0.00409
16 | ATGCGTAC | 0.0302
17 | GTTTGCGA | 0.0351
18 | CGCCGAAC | 0.243
19 | GCCATAAA | 0.0469
20 | AATCCAAT | 0.139
21 | GGTAAACC | -0.129
22 | CCCAAGAA | -0.0927
23 | ATAACTCG | 0.0754
24 | GTTATAAC | 0.222
25 | ACCTTACT | 0.156

Row | Sequence | PBM E-score
26 | TAAGGCGA | 0.0918
27 | GATGGATA | -0.0778
28 | AATGCGAA | 0.051
29 | GTACGTAA | 0.449
30 | AACAGAGT | 0.0698
31 | CATTTGCA | 0.14
32 | AAGTTGAA | 0.108
33 | CCATACTC | -0.219
34 | ATGTCTCG | -0.136
35 | AGAACCTA | -0.106
36 | AGTTCAAG | 0.118
37 | ACCATCTA | -0.207
38 | GCCTATGA | -0.021
39 | AGCGCGCA | 0.00679
40 | AATCCCTC | -0.0193
41 | CGAGCTTC | -0.0365
42 | AGCGGCAA | 0.137
43 | GAGCCCCA | -0.331
44 | AATTGAAC | 0.0107
45 | ACCCCTGG | -0.232
46 | CCATACAG | -0.132
47 | ACTATAGA | -0.0234
48 | GTCACGCA | 0.241
49 | ACCACCGG | -0.112
50 | ACTCACTC | 0.0755

Row | Sequence | PBM E-score
51 | CAGCAAGC | -0.241
52 | CACCACTC | -0.061
53 | AAGGATGC | 0.0365
54 | CCTGCTAG | -0.275
55 | ACATCTCG | 0.027
56 | AGGCATTC | -0.135
57 | ATGCGGTC | 0.171
58 | AATGAGTG | 0.156
59 | CTGATCGC | 0.0613
60 | AAGAATCC | -0.0289
61 | CCATGCGA | -0.112
62 | ATCACTAA | 0.199
63 | CCCGCCCC | 0.118
64 | TAGCTTAA | -0.0115
65 | ACTATGCA | -0.035
66 | TAATATAA | 0.358
67 | GAAGCGCC | 0.114
68 | GCTGACTA | -0.134
69 | GACGCAAA | 0.301
70 | GCGCTGAA | -0.175
71 | AAGAAAAA | 0.103
72 | ATGACCTG | 0.0198
73 | ACGCACCG | 0.0946
74 | CGTTGCGA | -0.00168
75 | CTACTGAG | -0.141

Row | Sequence | PBM E-score
76 | TCCAAAGA | 0.0439
77 | CCTCAATA | -0.00327
78 | ATTACTGA | 0.255
79 | AAGATGTG | 0.0614
80 | GGACTACC | -0.296
81 | ACGCCCAC | 0.0218
82 | GGTTGTGA | 0.194
83 | TTAGACAA | 0.148
84 | GGCGTCTA | 0.0648
85 | AAACACCT | 0.164
86 | TATCGTGA | 0.0604
87 | AGGTGTAC | -0.013
88 | AGTTCCAT | 0.0719
89 | GAGTACCA | -0.00811
90 | CACACGCA | -0.203
91 | CACACCGG | -0.195
92 | CCGGTGCG | -0.0389
93 | CAGTGGTC | -0.182
94 | GGTCCTGA | -0.184
95 | GGTAACAC | 0.0481
96 | CCTGGTAG | -0.276
97 | CCTTATAC | 0.0209
98 | CAGTCACG | -0.0488
99 | CCCGAACC | -0.344
100 | CAAACCAG | -0.0964

Row | Sequence | PBM E-score
101 | CCTAAGCC | -0.363
102 | TAATGCGA | 0.137
103 | CTTTCACC | 0.0693
104 | ATATACCG | 0.112
105 | CGCAGCTA | 0.054
106 | AGTACACC | -0.104
107 | ACTCCACT | -0.0896
108 | CTGCCAGA | -0.192
109 | ACAGCTTG | 0.0214
110 | ACCGTCCG | -0.187
111 | AATTTTCA | 0.124
112 | GACACTCA | 0.0662
113 | CCACTCTA | 0.00292
114 | AAATATTT | 0.246
115 | CTGCTGGC | -0.342
116 | TACAAGGA | 0.0984
117 | GGCTCCTA | -0.29
118 | AAATTCTT | 0.0859
119 | CTTCACCC | 0.0725
120 | TATCTGCA | 0.12
121 | ACCTCCCG | -0.23
122 | AATCCGGT | 0.0129
123 | CAGGGGAC | -0.334
124 | CGATGGCG | -0.118
125 | CTTGAACA | -0.0112

Row | Sequence | PBM E-score
126 | CAAGAGCC | 0.0635
127 | AAGCCGGA | 0.00634
128 | AACGTCGC | 0.195
129 | CACTGGGC | -0.23
130 | GCTAATCC | 0.0353
131 | CAAGATCG | 0.0147
132 | CTGTGGAA | -0.0942
133 | CTGTAAGC | 0.0489
134 | GGTGCATA | -0.00991
135 | TTGAGAAA | 0.173
136 | GCGGACCA | 0.0449
137 | ATGTAATA | 0.415
138 | AAACAATA | 0.296
139 | AGTCTCTC | -0.206
140 | GTCTCGAA | -0.154
141 | ATTGGCAG | -0.165
142 | TATCTTGA | 0.0541
143 | CAGCAAAG | -0.0415
144 | ACGCTGCC | -0.168
145 | GACTAGAC | -0.263
146 | CAAACACG | 0.199
147 | TGCGCTAA | 0.0508
148 | GCCGTTCC | 0.242
149 | GAAACCAC | 0.0157
150 | GTTACGAA | 0.16

Row | Sequence | PBM E-score
151 | ACGTGCAA | 0.068
152 | CAGCCCGC | -0.322
153 | CGCTCCTC | -0.265
154 | TAACCAGA | -0.0457
155 | ACTGCCAT | 0.0641
156 | ACAATATA | 0.253
157 | CTATGCAA | -0.0537
158 | CTCCAGTA | -0.114
159 | ACGGTACC | -0.0593
160 | ATGTACAA | 0.0408
161 | CCACAACA | -0.124
162 | ACATGGAA | -0.0129
163 | ACACCGGT | -0.237
164 | GAGTCACA | 0.0692
165 | CGACCAGC | -0.102
166 | ACATTATC | 0.165
167 | AATTCCTA | 0.138
168 | CTAGGCAG | -0.211
169 | GTCGCAAA | 0.0922
170 | ATCCTCTC | -0.189
171 | GGGAGGCA | -0.2
172 | ACAAAGAT | 0.135
173 | AGGCTGTA | -0.0214
174 | CGTACCCC | -0.0299
175 | CGTTCCGA | -0.0551

Row | Sequence | PBM E-score
176 | ACCCTACG | -0.147
177 | AGTCATAC | 0.144
178 | ACCGGGAT | -0.306
179 | GCACATCC | -0.13
180 | ATATATAA | 0.324
181 | AAATTGAC | 0.184
182 | CCTTTTAG | -0.128
183 | CCCGTATA | -0.0644
184 | ATGTCTCA | -0.0728
185 | ATATTTTG | 0.173
186 | ACTGTGTA | -0.043
187 | AGTTACTC | 0.0596
188 | ACGCTATA | -0.0686
189 | TCCTACGA | -0.304
190 | TTCCCGAA | -0.0136
191 | AAGCTCTC | -0.254
192 | AGTGGGGA | -0.326
193 | CATCAGTC | -0.163
194 | ACCTAGGC | -0.198
195 | ACCCCAAC | -0.0575
196 | ACGCAGTG | -0.0619
197 | ACGTGGAT | 0.197
198 | CCGAATAG | -0.103
199 | GCTGTGTA | -0.04
200 | CTCTAAGC | 0.0116

Row | Sequence | PBM E-score
201 | ACAAAGAC | 0.0933
202 | CATAGGGA | -0.00022
203 | CCCCCTCA | -0.373
204 | ATGCGAGC | -0.123
205 | ACTCTGCT | -0.156
206 | CCACACTC | -0.0967
207 | GCACGTAC | -0.00487
208 | ACACTTTC | -0.0648
209 | ATACAAAA | 0.214
210 | ATCCTTTA | 0.0936
211 | ATTTATGA | 0.195
212 | ACGGTTAA | 0.194
213 | ATGATCGG | 0.1
214 | GTGTATGA | 0.186
215 | AGAGGTAT | 0.187
216 | CACGCGAA | -0.105
217 | CACAAGTG | -0.12
218 | AATCTGCA | -0.0358
219 | CGCTCCGC | -0.233
